Data taken from the supplement of paper PMC3334620.
The full ranking holds about 33,000 sequences; the median of “E-score (-0.5 to 0.5)” is about -0.017, and the highest 2% start at about 0.3. This is one part of the list.

What follows are sequences tested against T1, Sut1 (UniProt P53032) (assay: PBM E-score (8-mer binding enrichment) (E-score (-0.5 to 0.5)); higher = stronger / more preferred TF binding; most listed sequences are background and not binding sites). Conditions: protein concentration: 200 nM; construct: GST-full length.
T1 sequence: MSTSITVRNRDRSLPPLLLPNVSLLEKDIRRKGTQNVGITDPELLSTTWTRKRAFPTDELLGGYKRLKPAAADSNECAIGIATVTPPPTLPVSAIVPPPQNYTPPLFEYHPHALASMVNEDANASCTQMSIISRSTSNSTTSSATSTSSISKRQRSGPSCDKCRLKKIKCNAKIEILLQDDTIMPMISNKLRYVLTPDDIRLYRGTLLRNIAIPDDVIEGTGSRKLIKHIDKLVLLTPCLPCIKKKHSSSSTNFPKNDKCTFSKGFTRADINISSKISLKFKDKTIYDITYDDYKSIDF
Method: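 Universal 'all 10-mer' protein binding microarrays (Agilent AMADID 015681) probed with GST-tagged S. cerevisiae TFs (full-length or DBD) made by in vitro transcription/translation (PURExpress), about 100-200 nM. Bound TF was detected with fluorescent anti-GST. Each ungapped 8-mer (which stands for itself and its reverse complement) is scored by the PBM enrichment score (E-score), a modified Wilcoxon-Mann-Whitney statistic from -0.5 to +0.5, computed with the Universal PBM Analysis Suite. Scale: above 0.35 generally sequence-specific binding.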
ATCTTGAC was tested, and the “PBM E-score” value was -0.184.
For CCAGTACA, the “PBM E-score” value was -0.104.
For CGTGAATC, the “PBM E-score” value was 0.146.
In the case of GGTCCAGA, the “PBM E-score” value is reported as -0.172.
With GTTCCGCA the “PBM E-score” value was 0.0832.
With AGGTGGAC the “PBM E-score” value was -0.285.
In the case of GAACGGTA, the “PBM E-score” value is reported as -0.167.
For ACGTGAAT, the “PBM E-score” value was 0.0208.
With ACTGCCTG the “PBM E-score” value was -0.0119.
AACGTACG was tested, and the “PBM E-score” value was -0.147.
In the case of GCGGCTAC, the “PBM E-score” value is reported as -0.181.
With CGTCTACC the “PBM E-score” value was -0.0571.
For ACGATGCG, the “PBM E-score” value was -0.0696.
AAGTAGAT was tested, and the “PBM E-score” value was 0.158.
In the case of CGCTCACG, the “PBM E-score” value is reported as 0.0735.
In the case of AAACGTCC, the “PBM E-score” value is reported as -0.0656.
With ATAAAATA the “PBM E-score” value was 0.323.
In the case of CCGCCCCG, the “PBM E-score” value is reported as 0.224.
For CGTTTTCA, the “PBM E-score” value was 0.158.
For GTGTTCGA, the “PBM E-score” value was -0.0667.
In the case of ACTTCTTG, the “PBM E-score” value is reported as -0.0568.
For GCTTCACA, the “PBM E-score” value was -0.084.
With AATCTCAG the “PBM E-score” value was -0.134.
With GCGAGCAC the “PBM E-score” value was -0.276.
With GCTCAAAC the “PBM E-score” value was 0.196.
ATTATGAA was tested, and the “PBM E-score” value was 0.209.
For AGTCGCAT, the “PBM E-score” value was -0.0588.
GATTGGGA was tested, and the “PBM E-score” value was -0.0746.
With CTCATACC the “PBM E-score” value was -0.0198.
GATGTCGC was tested, and the “PBM E-score” value was -0.127.
CTGGTGGC was tested, and the “PBM E-score” value was -0.208.
CGCTAGTA was tested, and the “PBM E-score” value was 0.101.
With ACCCCGAC the “PBM E-score” value was 0.273.
For CGGGCTAA, the “PBM E-score” value was -0.194.
With CCTTGGGA the “PBM E-score” value was -0.144.
In the case of ACTTACCA, the “PBM E-score” value is reported as 0.0741.
In the case of TAATAGAA, the “PBM E-score” value is reported as 0.21.
For AGTCGAGG, the “PBM E-score” value was -0.0798.
AGACAGAC was tested, and the “PBM E-score” value was 0.0831.
For AGGGTCAG, the “PBM E-score” value was -0.312.
In the case of CTCAACTA, the “PBM E-score” value is reported as -0.0597.
GTAGACTA was tested, and the “PBM E-score” value was -0.116.
With ATATAGAA the “PBM E-score” value was 0.21.
AAAGTCCA was tested, and the “PBM E-score” value was 0.0103.
With GAACGAAC the “PBM E-score” value was 0.0882.
With ACTATCCT the “PBM E-score” value was 0.196.
AGGGCTAG was tested, and the “PBM E-score” value was -0.178.
For AATCCCTA, the “PBM E-score” value was 0.0339.
AGCCTGGA was tested, and the “PBM E-score” value was -0.244.
CACTTTCG was tested, and the “PBM E-score” value was 0.0753.
In the case of CACAGTTC, the “PBM E-score” value is reported as -0.0798.
In the case of AGGTGGGG, the “PBM E-score” value is reported as -0.154.
With GTCCCTGA the “PBM E-score” value was -0.24.
CATAGCGA was tested, and the “PBM E-score” value was -0.031.
For CGTCACCC, the “PBM E-score” value was -0.238.
In the case of AAAATGGC, the “PBM E-score” value is reported as 0.0418.
In the case of GTCCAGAA, the “PBM E-score” value is reported as 0.00171.
GAGATGGC was tested, and the “PBM E-score” value was 0.11.
With CCTTATGC the “PBM E-score” value was 0.0269.
In the case of GAGCTATC, the “PBM E-score” value is reported as -0.0645.
With CCGTCCCG the “PBM E-score” value was 0.0308.
With ATGACTGG the “PBM E-score” value was -0.23.
In the case of GCGGCGGA, the “PBM E-score” value is reported as 0.26.
In the case of CCGGCAAC, the “PBM E-score” value is reported as 0.00605.
CAAGTAGA was tested, and the “PBM E-score” value was -0.0646.
In the case of AGGGACGA, the “PBM E-score” value is reported as -0.112.
With TCTTACCA the “PBM E-score” value was -0.113.
With TGCATTAA the “PBM E-score” value was -0.00455.
CTAGGAAA was tested, and the “PBM E-score” value was -0.0348.
For CAGGGGGG, the “PBM E-score” value was -0.419.
With AGCTATTG the “PBM E-score” value was 0.0263.
For CCTACCGC, the “PBM E-score” value was -0.226.
With AGGTGTTC the “PBM E-score” value was -0.256.
In the case of ATGTCGCA, the “PBM E-score” value is reported as -0.0146.
For ATACGCGC, the “PBM E-score” value was -0.098.
For AGTCGTTG, the “PBM E-score” value was -0.18.
For CGGAACAC, the “PBM E-score” value was 0.25.
In the case of CAGAGGGA, the “PBM E-score” value is reported as -0.329.
AAGAAGAA was tested, and the “PBM E-score” value was 0.189.
In the case of GCGATATA, the “PBM E-score” value is reported as -0.0297.
CGATGCAG was tested, and the “PBM E-score” value was -0.188.
ATACTTAC was tested, and the “PBM E-score” value was 0.139.
GAATCAAA was tested, and the “PBM E-score” value was 0.134.
ACTTCCTG was tested, and the “PBM E-score” value was -0.00111.
TAATGCCA was tested, and the “PBM E-score” value was 0.0847.
In the case of GCCTCAAC, the “PBM E-score” value is reported as -0.133.
With ATAAGGGG the “PBM E-score” value was -0.0799.
ACTTATCA was tested, and the “PBM E-score” value was -0.0107.
With AGTTGTCA the “PBM E-score” value was -0.00646.
In the case of TAGACACA, the “PBM E-score” value is reported as -0.026.
For TCTATCCA, the “PBM E-score” value was -0.0141.
With CCCGAATA the “PBM E-score” value was 0.0785.
With AAGTAGAC the “PBM E-score” value was 0.0643.
For AAATTATT, the “PBM E-score” value was 0.328.
For AACCTGAA, the “PBM E-score” value was -0.186.
With CATGGCAA the “PBM E-score” value was -0.109.
With TGCTGTAA the “PBM E-score” value was 0.0412.
In the case of CCAACTAG, the “PBM E-score” value is reported as -0.0817.
For TTCAACAA, the “PBM E-score” value was 0.133.
GCCGAACA was tested, and the “PBM E-score” value was 0.126.
In the case of CCAATTGC, the “PBM E-score” value is reported as -0.0223.
In the case of GGGCTTGA, the “PBM E-score” value is reported as -0.0194.
ACACAGGG was tested, and the “PBM E-score” value was -0.132.
With GGGGATCA the “PBM E-score” value was -0.218.
In the case of AAAGTCCC, the “PBM E-score” value is reported as 0.0514.
For ACTTCGGG, the “PBM E-score” value was 0.0676.
CAAAGCAC was tested, and the “PBM E-score” value was 0.0115.
CTGTCTTC was tested, and the “PBM E-score” value was -0.0424.
With ACAGCTAG the “PBM E-score” value was -0.199.
In the case of ATCCACTG, the “PBM E-score” value is reported as -0.0169.
With TAGCGGAA the “PBM E-score” value was 0.0446.
For ATATGGAT, the “PBM E-score” value was 0.123.
In the case of ACCTTGCT, the “PBM E-score” value is reported as -0.0591.
In the case of CGGCACGC, the “PBM E-score” value is reported as -0.11.
TGCCAAAA was tested, and the “PBM E-score” value was 0.101.
For ACTTTACG, the “PBM E-score” value was 0.0657.
AAAGTTCA was tested, and the “PBM E-score” value was -0.00163.
GTATTAAC was tested, and the “PBM E-score” value was 0.155.
For CGTGGGAA, the “PBM E-score” value was -0.235.
GATAGAGC was tested, and the “PBM E-score” value was 0.0377.
With CCACTAAC the “PBM E-score” value was -0.0741.
TGCATGAA was tested, and the “PBM E-score” value was 0.138.
With CACCGTCG the “PBM E-score” value was -0.0962.
In the case of ATTTTGAA, the “PBM E-score” value is reported as 0.241.
For GACTCAAC, the “PBM E-score” value was 0.115.
CTTGCATA was tested, and the “PBM E-score” value was 0.077.
With AGCAGATA the “PBM E-score” value was 0.0338.
For GATACAAC, the “PBM E-score” value was 0.158.
ATTTACGG was tested, and the “PBM E-score” value was 0.292.
For ACCACTAT, the “PBM E-score” value was -0.00765.
In the case of AAAGAGGT, the “PBM E-score” value is reported as 0.0394.
ACCCAGCG was tested, and the “PBM E-score” value was -0.254.
ACTGAGGA was tested, and the “PBM E-score” value was -0.0529.
For AAGGGATT, the “PBM E-score” value was -0.0378.
ATTTAGCC was tested, and the “PBM E-score” value was -0.00257.
With CCATTTAC the “PBM E-score” value was 0.0761.
ATGATGAA was tested, and the “PBM E-score” value was 0.231.
In the case of CACATCCC, the “PBM E-score” value is reported as -0.243.
For GGCGATAA, the “PBM E-score” value was -0.0163.
For AGGCCGAA, the “PBM E-score” value was 0.0931.
For GACATTAC, the “PBM E-score” value was 0.0262.
With GACGAGGA the “PBM E-score” value was -0.137.
With ACAAGGTG the “PBM E-score” value was -7e-05.
With AGCCGTGG the “PBM E-score” value was -0.256.
In the case of CTCTGGTA, the “PBM E-score” value is reported as -0.128.
For AGATCGTC, the “PBM E-score” value was -0.0781.
With ACCAACTG the “PBM E-score” value was -0.0972.
TATCGCGA was tested, and the “PBM E-score” value was 0.0753.
With CATAGTGG the “PBM E-score” value was -0.0855.
AGAAGCAG was tested, and the “PBM E-score” value was -0.0721.
With ACTGTACC the “PBM E-score” value was 0.00175.
In the case of CGTAATCC, the “PBM E-score” value is reported as 0.0632.
GAGAGACA was tested, and the “PBM E-score” value was -0.0219.
For AGCCGCAG, the “PBM E-score” value was -0.118.
With GTCTGCAA the “PBM E-score” value was -0.0577.
With AGCGACCC the “PBM E-score” value was -0.139.
In the case of ATTGTCAG, the “PBM E-score” value is reported as -0.0386.
AGGGGATC was tested, and the “PBM E-score” value was -0.134.
For AGATAAGG, the “PBM E-score” value was -0.0922.
With TAGTGACA the “PBM E-score” value was 0.256.
GGTAGCTA was tested, and the “PBM E-score” value was -0.306.
With ACAAGCCT the “PBM E-score” value was -0.234.
With AGGTATAT the “PBM E-score” value was 0.185.
CTAAGGTA was tested, and the “PBM E-score” value was 0.0558.
In the case of ATTAGCGA, the “PBM E-score” value is reported as -0.00039.
ATTACATC was tested, and the “PBM E-score” value was 0.2.
With ACTTGTCC the “PBM E-score” value was -0.0229.
In the case of CTATTGAA, the “PBM E-score” value is reported as 0.226.
ATATTCTG was tested, and the “PBM E-score” value was 0.102.
CCAGCTCG was tested, and the “PBM E-score” value was -0.214.
TCATACAA was tested, and the “PBM E-score” value was 0.304.
For CACTGGCA, the “PBM E-score” value was -0.0547.
